# Assay results: PubChem BioAssay AID1030 (National Center for Advancing Translational Sciences (NCATS), 2008)
# In all, about 220,000 compounds went through this assay and about 16,000 (7.3%) were called active. Inconclusive results, whose numbers are uncertain, are shown with a selection of clear calls. Calls come from the whole dose curve; as a rule, active = well fitted inhibition curve with a large enough effect (not every such curve was filed as active); inconclusive = small, poorly fitted or top-dose-only effect, or another doubt; inactive = no such curve, though single readings can be large or run the other way. Potencies of inconclusive entries are left out as doubtful fits.
# Molecular target: Aldehyde dehydrogenase 1A1 (Homo sapiens) (UniProt P00352)
# Test: qHTS Assay for Inhibitors of Aldehyde Dehydrogenase 1 (ALDH1A1);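 for activity, negative = inhibition: plate controls were no enzyme wells and a reference inhibitor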
# Conditions: Purified ALDH1A1, NADH fluorescence, propionaldehyde substrate; series mostly up to 75.3 µM; activity, negative = inhibition: at the top concentration
# Potency is the fitted concentration of half-maximal effect; tags give direction and shape of the fitted curve.
# Sequence of UniProt P00352 (P00352 whole entry, looked up): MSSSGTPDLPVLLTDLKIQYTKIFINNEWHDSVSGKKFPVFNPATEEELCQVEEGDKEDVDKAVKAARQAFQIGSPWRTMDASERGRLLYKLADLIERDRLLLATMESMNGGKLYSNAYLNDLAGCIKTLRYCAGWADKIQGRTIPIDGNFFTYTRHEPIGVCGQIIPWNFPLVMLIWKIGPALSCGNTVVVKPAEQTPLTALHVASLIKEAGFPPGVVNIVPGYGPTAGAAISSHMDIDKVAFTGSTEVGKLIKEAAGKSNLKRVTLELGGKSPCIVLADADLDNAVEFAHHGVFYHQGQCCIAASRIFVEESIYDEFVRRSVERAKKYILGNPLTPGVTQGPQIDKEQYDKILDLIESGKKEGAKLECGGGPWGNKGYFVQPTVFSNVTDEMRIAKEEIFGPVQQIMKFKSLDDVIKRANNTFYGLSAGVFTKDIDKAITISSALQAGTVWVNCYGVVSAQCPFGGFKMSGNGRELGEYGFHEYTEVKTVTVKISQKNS
SMILES,"activity, negative = inhibition",Potency
c1cncc(-c2cc(-c3cc(-c4cccnc4)n[nH]3)[nH]n2)c1,inactive: 25.1% [at 13.5 µM],
N#Cc1c(N)n(-c2ccccc2)c(=O)c2cc([N+](=O)[O-])ccc12,,"inconclusive [inhibitor, single point]"
COc1ccc(N2CCN(CC(=O)Nc3ccc(SC(F)F)cc3)CC2)cc1,inactive: -0.16%,
Cc1ccc(-n2c3nc(=O)[nH]c(=O)c-3cc3cc([N+](=O)[O-])ccc32)cc1C,inactive: 3.23%,
CC(C)CNC(=O)c1ccc(C2SCC(=O)N2Cc2ccccc2)cc1 (centres undefined),inactive: 2.81%,
Cc1n[nH]c(=O)nc1N/N=C/c1ccc(O)c([N+](=O)[O-])c1,,"inconclusive [inhibitor, single point]"
Cc1ccc(CC(=O)Nc2ccncc2)cc1,inactive: 5.18%,
CSc1nsc(/C=C/Nc2ccc(C)c(C)c2)c1C#N,,active: 14.1 µM
COc1ccc(Nc2nc3c([nH]2)c(=O)[nH]c(=O)n3C)cc1,inactive: 1.82%,
Cc1nc([N+](=O)[O-])c(Br)n1CC(=O)c1cccc([N+](=O)[O-])c1,,active: 25.1 µM
CCC1CCc2c(c3ccccc3[nH]c2=O)O1 (centres undefined),inactive: 8.48%,
COCCOc1ccc(C(F)(F)F)cc1Nc1nc2ccccc2o1,,"inconclusive [inhibitor, single point]"
O=C1NC(c2cccs2)Nc2ccccc21 (centres undefined),,"inconclusive [inhibitor, partial curve]"
O=C(NC(NC(=S)Nc1ccccc1C(=O)O)C(Cl)(Cl)Cl)c1cccc([N+](=O)[O-])c1 (centres undefined),,"inconclusive [inhibitor, partial curve]"
CCn1c(SCc2ccc(F)cc2)nc2c(c1=O)SCC2,inactive: -5.69%,
COCc1nnc(NC(=O)c2ccc(S(=O)(=O)N(CC(C)C)CC(C)C)cc2)o1,,"inconclusive [inhibitor, single point]"
COc1ccc(-c2cc(-c3ccccc3)nc(-c3ccc4c(c3)NC(=O)CO4)c2)cc1,,"inconclusive [inhibitor, single point]"
C=C1C(=O)O[C@@H]2[C@@H]1CC/C(C)=C\CC[C@@]1(C)O[C@H]21,,active: 10 µM
O=C(Nc1nc2c(s1)CCCC2)Oc1ccccc1,inactive: -13.1%,
O=C(OCc1nc2ccccc2s1)[C@@H]1CCCN1S(=O)(=O)c1ccccc1F,,active: 7.94 µM
CCCc1cc(=O)n2[nH]c(-c3ccccc3)cc2n1,,"inconclusive [inhibitor, single point]"
CNC(=S)N/N=C(\C)c1ccc(N2CCOCC2)cc1,,"inconclusive [inhibitor, partial curve]"
COc1ccc(NS(=O)(=O)c2ccc(NC(=O)CCNS(=O)(=O)c3ccc(C)cc3)cc2)cc1,,"inconclusive [inhibitor, partial curve]"
COc1ccccc1/C=C/C=C1\Oc2c(ccc(O)c2CN2CCN(CCO)CC2)C1=O,,"inconclusive [inhibitor, single point]"
COc1ccc(CCNC2CC(=O)N(CCc3ccc(OC)c(OC)c3)C2=O)cc1 (centres undefined),,active: 17.8 µM
Cc1ccc(NC(=O)CN(C)C(=O)c2cc3ccccc3o2)cc1,inactive: 7.22%,
Cc1ccc(S(=O)(=O)Nc2ccc(S(=O)(=O)Nc3ncccn3)cc2)cc1,,"inconclusive [inhibitor, single point]"

SMILES,"activity, negative = inhibition",Potency
CCOC(=O)c1ccc(N2C(=O)CC(NC3CCN(C(=O)c4ccc(F)cc4)CC3)C2=O)cc1 (centres undefined),,active: 14.1 µM
Cc1ccc(NC2c3ncccc3C(=O)N2Cc2cccs2)cc1 (centres undefined),,active: 28.2 µM
C=CCC(C)(O)c1ccco1 (centres undefined),inactive: 12.8%,
CC(=O)N(C)c1ccc(NC(=S)Nc2ccccc2)cc1,inactive: 6.7%,
CCCC(C(=O)O)N1C(=O)/C(=C2\C(=O)N(C)c3ccccc32)SC1=S (centres undefined),inactive: -11.8%,
O=C(Nc1ccccc1-c1nc2ccccc2[nH]1)c1ccc(N2C(=O)CCC2=O)cc1,,"inconclusive [inhibitor, partial curve]"
Cc1ccc([N+](=O)[O-])cc1N=C(c1cccc(Br)c1)N1CCOCC1,inactive: -0.768%,
O=C(CSc1ccc(-c2ccco2)nn1)NCCc1ccccc1,,active: 7.08 µM
CCn1c(SCC(=O)N2CCCc3ccccc32)nc2ccccc2c1=O,,"inconclusive [inhibitor, partial curve]"
Cc1nnc(Nc2ccc(O)cc2)[nH]c1=O,inactive: -0.64%,
CC(OC(=O)C1=Cc2ccccc2OC1)C(=O)NC1CCCC1 (centres undefined),inactive: 16.7%,
COc1cc(NC(=O)c2ccco2)c(OC)cc1NC(=O)CCC(=O)Nc1cc(C)ccc1C,,"inconclusive [inhibitor, single point]"
CN1C(=O)C2(Nc3ccccc3-c3nc4ccccc4n32)c2ccccc21 (centres undefined),,"inconclusive [inhibitor, single point]"
CCOC(=O)c1cccc(NC(=O)CCS(=O)(=O)c2cccs2)c1,,active: 20 µM
O=C(Cn1nnc(-c2ccccc2)n1)N/N=C/c1ccco1,inactive: -0.499%,
O=C(CSc1nnc2n(C3CCCC3)c(=O)c3ccccc3n12)N1CCCCCC1,,"inconclusive [inhibitor, partial curve]"
COc1ccc(C(=O)CC(Nc2ccc([N+](=O)[O-])cc2)c2ccc(OC)cc2)cc1 (centres undefined),,"inconclusive [inhibitor, partial curve]"
CC1(C)C(=O)Nc2ccccc2N1C(=O)CSc1nc(-c2ccccc2)cs1,inactive: -4.5%,
CCOC(=O)N1CCN(C(=O)C(=O)NN)CC1,,active: 12.6 µM
Cc1nnc(SC(C)C(=O)Nc2nccs2)s1 (centres undefined),inactive: -2.82%,
C#CCNC(=O)C1=C[C@H](C)[C@@H](CCCO)[C@H](OCC)O1,inactive: 4.39%,
O=C1CC(c2ccco2)CC2=C1C(c1ccccc1)n1nc(C(F)(F)F)nc1N2 (centres undefined),,"inconclusive [inhibitor, partial curve]"
COCCSc1ccccc1C(=O)Nc1ccccc1C(C)C,inactive: -2.02%,
Cc1ccc(NC(=O)COc2ccc(/C=C3/SC(=Nc4ccccc4)N(Cc4cccnc4)C3=O)cc2)cc1,inactive: -4.38%,
Cc1ccc(S(=O)(=O)NC(CC(C)C)C(=O)Oc2ccc3c4c(c(=O)oc3c2)CCC4)cc1 (centres undefined),,"inconclusive [inhibitor, partial curve]"
CN(C)CC(O)COc1ccc(-c2ccc(C#N)cc2)cc1 (centres undefined),,"inconclusive [inhibitor, single point]"
S=C(NCc1ccco1)Nc1ccccn1,,"inconclusive [inhibitor, single point]"

SMILES,"activity, negative = inhibition",Potency
Cc1ccc(-c2cc(C(=O)OCC(=O)N(C)C3CCS(=O)(=O)C3)c3ccccc3n2)c(C)c1 (centres undefined),,"inconclusive [inhibitor, single point]"
O=C(NCc1ccccc1)C1(c2ccccc2)CCN(S(=O)(=O)c2ccccc2)CC1,,active: 8.91 µM
O=C(CSCC(=O)Nc1nc(-c2ccc3c(c2)OCO3)cs1)Nc1nccs1,,active: 22.4 µM
CCC(C(=O)N1CCc2cc(OC)c(OC)cc2C1)c1ccccc1 (centres undefined),,"inconclusive [inhibitor, single point]"
CN(C)C(=O)CCCc1nc(-c2ccc(Cl)cc2)no1,inactive: 4.67%,
Cc1ccccc1-n1c(C)nnc1SCc1cc(=O)oc2ccc3ccccc3c12,,"inconclusive [inhibitor, single point]"
COc1ccc(-n2c(Cc3cccn3C)nnc2SCC(=O)NCCc2ccccc2)cc1,inactive: -10.9%,
CC(=O)Nc1ccc(C(=O)NC2CCCC2)cc1,,"inconclusive [inhibitor, single point]"
CCCN1C(=O)c2ccccc2NC1c1cc(OC)c(OC)c(OC)c1 (centres undefined),,"inconclusive [inhibitor, partial curve]"
COCC(=O)N1CCC[C@@]2(CCN(c3ccncc3)C2)C1,inactive: 8.54%,
Cc1oc(=O)c(NC(=O)c2ccccc2)cc1C(=O)c1ccccc1,,active: 17.8 µM
Cc1ccc2c(c1)C=CC(C)N2C(=O)c1ccccc1 (centres undefined),inactive: -5.65%,
Cn1c(SCC(=O)N2CCOCC2)nnc1-c1ccccc1,inactive: -1.24%,
Cc1ccc(C(=O)N2CCN(c3ccc([N+](=O)[O-])c(NCc4cccnc4)c3)CC2)cc1,,active: 12.6 µM
COc1cc(C(c2sc3nc(C)nn3c2O)N2CCc3ccccc3C2)cc(OC)c1OC (centres undefined),,"inconclusive [inhibitor, single point]"
N/C(=N\OC(=O)COc1ccc(Cl)cc1Cl)c1ccncc1,inactive: -0.392%,
CCCc1cc(-c2nc(-c3ccc(C)cc3)cs2)ccn1,,"inconclusive [inhibitor, single point]"
COc1cc(-c2cc(-c3nnco3)c3ccccc3n2)cc(OC)c1OC,,"inconclusive [inhibitor, single point]"
COc1ccc(C(=O)c2ccccc2)c(OCC(=O)NC2CC2)c1,inactive: -1.57%,
O=C(O)c1ccc(S(=O)(=O)c2ccc3c(c2)C(=O)N(Cc2ccco2)C3=O)cc1,,"inconclusive [inhibitor, partial curve]"
Cc1ccc(-n2nc3ccc(NC(=O)/C=C/c4ccco4)cc3n2)cc1C,,"inconclusive [inhibitor, single point]"
CCOc1ccc(C(=O)NC(=S)Nc2ccccc2OC)cc1[N+](=O)[O-],,active: 8.91 µM
O=C(COc1ccc(-c2ccccc2)cc1)N/N=C/c1ccccc1Br,,"inconclusive [inhibitor, single point]"
Cc1snc(SCC(=O)c2ccc([N+](=O)[O-])cc2)c1C#N,,active: 2.82 µM
O=C(NCCC1=CCCCC1)C1CCN(C(=O)c2ccc(Br)cc2)CC1,,"inconclusive [inhibitor, partial curve]"
